# Among all 43,000 compounds or so, about 200 (0.47%) were called active. Not shown: some 12% with an inconclusive outcome. The call rests on the fitted dose curve; in most records, active means well fitted cell-killing curve with a large enough effect; inconclusive means small, poorly fitted or top-dose-only effect, or effect the other way; inactive means flat fitted curve, though single readings scatter. Some of the results follow.
# Test: Cell viability qHTS assay in S16 Pmp22-F2sN cells; further: nearly all actives have a fitted effect of over 65% in size
# Conditions: S16 Pmp22-F2sN Schwann cells (luciferase reporters placed in the Pmp22 gene) viability, CellTiter-Glo, 24 h; series mostly up to 57.5 µM; activity change, negative = cytotoxicity: at the top concentration
# How it was run: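 Seed 500-1,000 S16 Pmp22-F2sN cells per well in phenol-red-free DMEM with 10% heat-inactivated FBS; pin-add 23 nL compound; incubate 24 h at 37C; add CellTiter-Glo, wait 15 min protected from light; read luminescence.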
# On the % scale 0 is the no-effect control and ±100 the full control effect.
row,SMILES,"activity change, negative = cytotoxicity"
1,Cc1cc(NS(=O)(=O)c2ccc3oc(=O)c4ncn(C)c4c3c2)ccc1Br,inactive: 14.6%
2,Cc1ccc(NC(=O)Cn2c(=O)n(Cc3nc(C)no3)c(=O)c3cc4c(cc32)OCO4)cc1,inactive: 1.7%
3,CC(C)c1ccc(N2C(=O)CSC23C(=O)N(Cc2ccccc2)c2ccccc23)cc1 (stereo unspecified),inactive: 3.25%
4,COc1cccc(CNC(=O)C(C)n2c(=O)cc(-c3ccccc3)c3c(C)nn(C)c32)c1 (stereo unspecified),inactive: 3.21%
5,O=C(/C=C/c1ccccc1Cl)Nc1nc(-c2cccs2)ns1,inactive: -17.6%
6,COc1ccc(NC(=O)N2CCN(S(=O)(=O)c3ccc4c(ccn4C)c3)CC2)c(OC)c1,inactive: 1.72%
7,Cc1nc2c(C(=O)NC(C)c3ccccc3)cnn2c(C)c1Cc1ccccc1 (stereo unspecified),inactive: -21.8%
8,CCC(=O)Nc1nnc(S(=O)(=O)N2CCc3ccccc32)s1,inactive: -5.5%
9,O=C(NCCc1csc(-c2ccc(F)cc2)n1)c1ccc(Br)o1,inactive: 6.78%
10,Cc1ccccc1CN1CCN(CC(=O)NCc2ccccc2Cl)C1=O,inactive: -2.31%
11,Cc1nc2cc(-c3ccccc3)nn2c(C)c1CCC(=O)N1CCN(c2ccccc2)CC1,inactive: 11.8%
12,CCSc1ncc(Cl)c(C(=O)Nc2c(C(=O)c3ccccc3)oc3ccccc23)n1,inactive: 0.203%
13,COc1ccc2oc(-c3ccc(C)c(NC(=O)Cc4ccc(Cl)cc4)c3)nc2c1,inactive: -0.785%
14,O=C(CCNS(=O)(=O)c1ccc2c(c1)CCN2C(=O)C1CC1)Nc1ccc(F)cc1F,inactive: -17.3%
15,COc1ccc(N2CC(NC(=O)c3ccc(S(=O)(=O)N4CCCCC4)cc3)CC2=O)cc1OC (stereo unspecified),inactive: 3.74%
16,Cc1cccc(NC(=O)c2cc(S(=O)(=O)N3CCC4(CC3)OCCO4)ccc2F)c1,inactive: 1.08%
17,COc1cc(OC)cc(-c2nc3nc(C)c(CCC(=O)Nc4cc(F)ccc4F)c(C)n3n2)c1,inactive: 0.112%
18,Fc1ccc2c(c1)NC(c1ccncc1)=NC(c1cccs1)=N2,inactive: 1.36%
19,Cc1c(NC(=O)c2cc(=O)c3cc(Cl)ccc3o2)c(=O)n(-c2ccccc2)n1C,inactive: -1.15%
20,Cc1cccc(-c2nc(Cn3c(SCc4cccc(C(F)(F)F)c4)nc4ccncc43)c(C)o2)c1,inactive: -0.353%
21,CCOCCCn1c(SCC(=O)Nc2ccc(OC)cc2OC)nc2ccccc2c1=O,inactive: 13.6%

row,SMILES,"activity change, negative = cytotoxicity"
1,CCOC(=O)CSc1nc2ccc(NC(=O)c3ccccc3)cc2s1,inactive: 9.77%
2,Cc1ccc(C)c(N2CCN(Cc3nnc(-c4ccccc4)o3)CC2)c1,inactive: -25%
3,COc1cccc(C(=O)c2cn(CC(=O)Nc3cccc(C)c3C)c3nc(C)ccc3c2=O)c1,inactive: 16%
4,CCc1ccc(C(=O)Nc2ccc3nn(-c4ccc(C)c(Cl)c4)nc3c2)cc1,inactive: 8.98%
5,COc1ccc(-c2cn3c(n2)sc2cc(C(=O)Nc4cc(Cl)ccc4C)ccc23)cc1,inactive: 1.08%
6,Cc1cccc(C)c1NC(=O)Cn1nc(C)c2sc3ccccc3c2c1=O,inactive: -15.2%
7,Cc1ccc(CN2CCc3nc(SCC(=O)Nc4cccc(C)c4C)[nH]c(=O)c3C2)cc1,inactive: -2.4%
8,CCOc1ccc(NC(=O)CCS(=O)(=O)c2ccc3c(c2)n(C)c(=O)c(=O)n3C)cc1,inactive: -5.68%
9,CCOc1ccc(NC(=O)CSc2nc(-c3ccc(F)cc3)cc(C(F)(F)F)c2C#N)cc1,inactive: 7.61%
10,Cc1ccc2cccc(NC(=O)C(C)(C)Oc3ccc(Br)cc3)c2n1,inactive: 7.57%
11,CCN(Cc1ccccc1)C(=O)CN1C(=O)COc2ccc(S(=O)(=O)N3CCCCCC3)cc21,inactive: 1.12%
12,CCn1cc2nc(SCc3ccccc3F)n(Cc3ccc(C)cc3)c(=O)c2n1,inactive: 5.83%
13,Cc1ccc(NC(=O)CCS(=O)(=O)c2cccc3nsnc23)c(C)c1,inactive: 16.2%
14,CCOC(=O)c1ccccc1NC(=O)Cn1c2ncccc2c(=O)n1-c1ccccc1,inactive: 17.2%
15,CCC(=O)N1CCc2cc(Br)cc(S(=O)(=O)NCCc3ccccc3)c21,inactive: 18.4%
16,O=C(NCCCN1CCN(c2ccccc2F)CC1)c1nnc(Cc2ccc(Cl)cc2Cl)o1,inactive: 4.16%
17,CCOC(=O)c1c(NC(=O)COc2ccc(F)cc2)sc2c1CCC(C)C2 (stereo unspecified),inactive: 7.85%
18,COc1cccc(CNC(=O)CCNS(=O)(=O)c2ccc3c(c2)oc(=O)n3C)c1,inactive: -19.4%
19,Cc1cc(C)c(Cn2c(C(O)c3ccccc3)nc3ccccc32)c(C)c1 (stereo unspecified),inactive: -6.76%
20,N#C/C(=C\c1ccc(-c2cc(Cl)ccc2Cl)o1)C(=O)Nc1ccccc1C(=O)O,inactive: 0.128%
21,CC(C)(C)C(=O)Nc1cccc(C(=O)OCc2cc(=O)n3nc(C4CCCCC4)sc3n2)c1,inactive: 2.69%

row,SMILES,"activity change, negative = cytotoxicity"
1,O=C(CSc1nc2ccccc2n1Cc1ccccc1Cl)NCc1ccccc1,inactive: -8.01%
2,CCOC(=O)c1[nH]cnc1C(=O)Nc1ccc(F)cc1,inactive: 4.64%
3,CCOC(=O)c1c(-c2ccc(OC)cc2)oc2ccc(OCc3ccc(C(=O)OC)cc3)cc12,inactive: 1.39%
4,CCNc1c(NC(=O)c2cc(OCC)c(OCC)c(OCC)c2)c(=O)oc2ccccc12,inactive: -2.26%
5,COc1cccc(CNC(=O)CCn2cccn2)c1,inactive: -2.42%
6,CCOc1ccc(CCNC(=O)CN(c2ccc(C)cc2)S(=O)(=O)N(C)C)cc1OCC,inactive: 2.81%
7,O=c1c(S(=O)(=O)c2ccccc2)cn(Cc2ccc(F)cc2)c2cc(N3CCCCC3)c(F)cc12,inactive: -3.66%
8,Cc1ccc(C)c(NC(=O)c2cc(S(=O)(=O)NCCC3=CCCCC3)ccc2F)c1,inactive: -12%
9,COc1ccc(CNC(=O)C(C(C)C)N2Cc3ccccc3C2=O)cc1 (stereo unspecified),inactive: -12.7%
10,CCCN(CCC)C(=O)C1CCN(c2ncnc3c2nc2n3CCCCC2)CC1,inactive: 15.8%
11,Cc1ccc(-n2c(=O)c3c(c4cc(C)ccc4n3C)n(CC(=O)Nc3cc(C)cc(C)c3)c2=O)cc1,inactive: -1.01%
12,CC1Cn2cc(C(=O)Nc3cccc(C(F)(F)F)c3)c(=O)c3c(Cl)ccc(c32)O1 (stereo unspecified),inactive: 1.87%
13,COC(=O)c1nnn(CC(=O)Nc2ccc(Br)c(C)c2)c1N,inactive: 2.19%
14,Cc1ccc(-c2onc(C)c2C)cc1S(=O)(=O)NC1CCCCC1,inactive: -6.29%
15,O=C(Cc1ccccc1)Nc1c(C(=O)Nc2ccccc2F)oc2ccccc12,inactive: 15.5%
16,CCc1ccc(-c2[nH]c3c(c2-c2sc(C)c(C(=O)OC)c2O)c(=O)n(C)c(=O)n3C)cc1,inactive: 2.49%
17,COc1ccc(NC(=O)c2ccc(COc3ccccc3OC)o2)cc1OC,inactive: -1.57%
18,CCn1cc(C(=O)NCc2ccccc2)c(=O)c2cc(S(=O)(=O)N3CCCCCC3)ccc21,inactive: -6.57%
19,COc1cccc(CNC(=O)CCC(=O)N2Cc3cccc(OC)c3Oc3ncccc32)c1OC,inactive: 1.5%
